From the supplement of paper PMC4967469
A lower IC50 marks a more sensitive line; fits outside the tested doses are given as limits. For AUC the same curve is integrated over the 256-fold range of doses and scaled to a fraction; the more sensitive the line, the further below 1. For part of these data: An inferred top dose is not printed in the source and was worked back from the curve model. For part of these data: Drugs with an entry number were screened twice under separate entries, and the two screens often disagree.

How the values were obtained:
Experiment in all cases: Viability of human cancer cell lines after 72 h of drug (GDSC screen)
[1] = compound: O=C(Nc1cccc(Nc2ncc(Br)c(NCCc3cnc[nH]3)n2)c1)N1CCCC1 [BX-912]; conditions: top dose 10.24 µM; top dose inferred
Procedure: (§1)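 Human cancer cell lines in 384-well plates, medium with 10% serum, drug for 72 h over a 256-fold dose range (nine 2-fold or five 4-fold steps up to the top dose). Adherent lines were fixed and stained with the nucleic acid dye Syto60, suspension lines read with resazurin; signal relative to control wells, capped at 0 and 100%. One two-parameter sigmoid per drug and line, fitted in a mixed model over all curves with the slope shared within a line.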

[2] = compound: O=C(/C=C/c1ccc(CN(CCO)CCc2c[nH]c3ccccc23)cc1)NO [LAQ824]; conditions: top dose 1.024 µM; top dose inferred
Procedure: as §1

[3] = compound: CCCC(=O)OCc1ccc(OC(=O)/C=C(C)/C=C/C=C(C)/C=C/C2=C(C)CCCC2(C)C)cc1 [VNLG/124]; conditions: top dose 5.12 µM; top dose inferred
Procedure: as §1

[4] = compound: COc1cc(N2CCC(C(N)=O)CC2)ccc1Nc1nc(N)c(Cl)c(Nc2ccccc2S(=O)(=O)C(C)C)n1 [HG-5-88-01]; conditions: top dose 10 µM; top dose inferred
Procedure: as §1

[5] = compound: O=C(Nc1ccc(OC(F)(F)F)cc1)c1sccc1NCc1ccnc2ccccc12 [OSI-930]; conditions: top dose 10.24 µM
Procedure: as §1

[6] = compound: Cc1c(N)nc([C@H](CC(N)=O)NC[C@H](N)C(N)=O)nc1C(=O)N[C@H](C(=O)N[C@H](C)[C@@H](O)[C@H](C)C(=O)N[C@H](C(=O)NCCc1nc(-c2nc(C(=O)NCCC[S+](C)C)cs2)cs1)[C@@H](C)O)[C@@H](OC1OC(CO)C(O)C(O)C1OC1OC(CO)C(O)C(OC(N)=O)C1O)c1cnc[nH]1 [Bleomycin]
Procedure: as §1

[7] = compound: Cc1ccc(NC(=O)c2ccc(CN3CCN(C)CC3)cc2)cc1Nc1nc(-c2cccnc2)cs1 [Masitinib]; conditions: top dose 20 µM
Procedure: as §1

[8] = compound: CC/C(=C(\c1ccccc1)c1ccc(OCCN(C)C)cc1)c1ccccc1 [Tamoxifen]; conditions: top dose 5 µM
Procedure: as §1

[9] = compound: CN(NC(=O)CC(=O)NN(C)C(=S)c1ccccc1)C(=S)c1ccccc1 [Elesclomol]; conditions: top dose 0.2 µM; top dose inferred
Procedure: as §1

[10] = compound: O=S(=O)(O)c1ccc2cc(N=Nc3cc(S(=O)(=O)O)c4cccnc4c3O)ccc2c1 [NSC-87877]; conditions: top dose 16 µM; top dose inferred
Procedure: as §1

[11] = top dose 50 µM, screen: GDSC drug entry 1378, top dose inferred
[12] = top dose 64 µM, screen: GDSC drug entry 190

Cell Line	AUC [1]	IC50 [1]	AUC [2]	IC50 [2]	AUC [3]	IC50 [3]	AUC [4]	IC50 [4]	AUC [5]	IC50 [5]	AUC [6, 11]	IC50 [6, 11]	AUC [6, 12]	IC50 [6, 12]	AUC [7]	IC50 [7]	AUC [8]	IC50 [8]	AUC [9]	IC50 [9]	AUC [10]	IC50 [10]
EN (endometrium, adherent)	0.826	8.56 µM	0.695	0.264 µM	0.975	> 5.12 µM	0.982	> 10 µM	0.979	> 10.2 µM	0.96	> 50 µM	0.782	34.4 µM	0.937	> 20 µM	0.982	> 5 µM	0.592	0.0239 µM	0.922	> 16 µM
EPLC-272H (lung squamous cell carcinoma, adherent)	0.542	0.843 µM	0.557	0.0933 µM	0.957	> 5.12 µM	0.883	> 10 µM	0.876	> 10.2 µM	0.605	6.32 µM	0.266	0.776 µM	0.874	> 20 µM	0.957	> 5 µM	0.648	0.0341 µM	0.978	> 16 µM
ES1 (Ewing sarcoma, adherent)	0.568	0.982 µM	0.359	0.0263 µM	0.952	> 5.12 µM	0.709	2.4 µM	0.826	6.09 µM	0.175	0.331 µM	0.067	< 0.25 µM	0.703	4.61 µM	0.978	> 5 µM	0.142	0.000973 µM	0.872	14.8 µM
ES4 (Ewing sarcoma, adherent)	0.828	7.63 µM	0.282	0.014 µM	0.846	4.62 µM	0.907	> 10 µM	0.916	> 10.2 µM	0.429	1.93 µM	0.118	< 0.25 µM	0.856	19.9 µM	0.98	> 5 µM	0.39	0.00596 µM	0.974	> 16 µM
ES5 (Ewing sarcoma, adherent)	0.442	0.435 µM	0.346	0.0223 µM	0.921	> 5.12 µM	0.664	1.92 µM	0.803	5.97 µM	0.591	5.77 µM	0.544	5.37 µM	0.766	8.45 µM	0.97	> 5 µM	0.489	0.0116 µM	0.975	> 16 µM
ES6 (Ewing sarcoma, adherent)	0.818	7.63 µM	0.377	0.027 µM	0.978	> 5.12 µM	0.938	> 10 µM	0.91	> 10.2 µM	0.869	> 50 µM	0.209	0.438 µM	0.884	> 20 µM	0.97	> 5 µM	0.659	0.0386 µM	0.981	> 16 µM
ES7 (Ewing sarcoma, adherent)	0.385	0.305 µM	0.556	0.0914 µM	0.817	2.97 µM	0.955	> 10 µM	0.876	> 10.2 µM	0.089	< 0.195 µM	0.228	0.628 µM	0.619	2.68 µM	0.931	> 5 µM	0.329	0.00411 µM	0.934	> 16 µM
ESS-1 (endometrium, adherent)	0.901	> 10.2 µM	0.344	0.0248 µM	0.988	> 5.12 µM	0.972	> 10 µM	0.98	> 10.2 µM	0.168	0.356 µM	0.111	0.267 µM	0.864	14.6 µM	0.989	> 5 µM	0.658	0.0326 µM	0.99	> 16 µM
ETK-1 (biliary tract, adherent)	0.953	> 10.2 µM	0.313	0.0178 µM	0.978	> 5.12 µM	0.901	> 10 µM	0.981	> 10.2 µM	0.521	3.6 µM	0.165	0.318 µM	0.875	> 20 µM	0.955	> 5 µM	0.65	0.0345 µM	0.983	> 16 µM
EW-1 (Ewing sarcoma, semi-adherent)	0.595	1.14 µM	0.366	0.0282 µM	0.968	> 5.12 µM	0.971	> 10 µM	0.939	> 10.2 µM	0.361	1.33 µM	0.402	2.21 µM	0.843	12.5 µM	0.988	> 5 µM	0.38	0.00603 µM	0.884	14.9 µM
EW-7 (Ewing sarcoma, semi-adherent)	0.727	2.56 µM	0.369	0.0293 µM	0.896	4.94 µM	0.725	2.47 µM	0.929	> 10.2 µM	0.458	2.44 µM	0.489	3.76 µM	0.857	13.2 µM	0.973	> 5 µM	0.932	> 0.2 µM	0.99	> 16 µM
EW-11 (Ewing sarcoma, adherent)	0.769	5.02 µM	0.468	0.0512 µM	0.885	> 5.12 µM	0.566	1 µM	0.927	> 10.2 µM	0.899	> 50 µM	0.549	5.66 µM	0.87	> 20 µM	0.921	> 5 µM	0.353	0.00432 µM	0.953	> 16 µM
